Data on 58 molecules can be found in publication PMC4336329 (PLoS ONE, 2015).

The campaign covered roughly 310,000 compounds. About 14,000 (4.5%) showed an effect of 50% or more. The effect is printed as a negative number. The list shows a part of the results.
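Note: peak tail current of the secondary pulse compared with the same well before compound.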

In the test the target is human ether-à-go-go-related gene (hERG) potassium channel (human, UniProt Q12809). The test is described as follows: primary screen, population patch clamp on CHO cells stably expressing hERG.
human ether-à-go-go-related gene (hERG) potassium channel, sequence (Q12809 whole entry, looked up): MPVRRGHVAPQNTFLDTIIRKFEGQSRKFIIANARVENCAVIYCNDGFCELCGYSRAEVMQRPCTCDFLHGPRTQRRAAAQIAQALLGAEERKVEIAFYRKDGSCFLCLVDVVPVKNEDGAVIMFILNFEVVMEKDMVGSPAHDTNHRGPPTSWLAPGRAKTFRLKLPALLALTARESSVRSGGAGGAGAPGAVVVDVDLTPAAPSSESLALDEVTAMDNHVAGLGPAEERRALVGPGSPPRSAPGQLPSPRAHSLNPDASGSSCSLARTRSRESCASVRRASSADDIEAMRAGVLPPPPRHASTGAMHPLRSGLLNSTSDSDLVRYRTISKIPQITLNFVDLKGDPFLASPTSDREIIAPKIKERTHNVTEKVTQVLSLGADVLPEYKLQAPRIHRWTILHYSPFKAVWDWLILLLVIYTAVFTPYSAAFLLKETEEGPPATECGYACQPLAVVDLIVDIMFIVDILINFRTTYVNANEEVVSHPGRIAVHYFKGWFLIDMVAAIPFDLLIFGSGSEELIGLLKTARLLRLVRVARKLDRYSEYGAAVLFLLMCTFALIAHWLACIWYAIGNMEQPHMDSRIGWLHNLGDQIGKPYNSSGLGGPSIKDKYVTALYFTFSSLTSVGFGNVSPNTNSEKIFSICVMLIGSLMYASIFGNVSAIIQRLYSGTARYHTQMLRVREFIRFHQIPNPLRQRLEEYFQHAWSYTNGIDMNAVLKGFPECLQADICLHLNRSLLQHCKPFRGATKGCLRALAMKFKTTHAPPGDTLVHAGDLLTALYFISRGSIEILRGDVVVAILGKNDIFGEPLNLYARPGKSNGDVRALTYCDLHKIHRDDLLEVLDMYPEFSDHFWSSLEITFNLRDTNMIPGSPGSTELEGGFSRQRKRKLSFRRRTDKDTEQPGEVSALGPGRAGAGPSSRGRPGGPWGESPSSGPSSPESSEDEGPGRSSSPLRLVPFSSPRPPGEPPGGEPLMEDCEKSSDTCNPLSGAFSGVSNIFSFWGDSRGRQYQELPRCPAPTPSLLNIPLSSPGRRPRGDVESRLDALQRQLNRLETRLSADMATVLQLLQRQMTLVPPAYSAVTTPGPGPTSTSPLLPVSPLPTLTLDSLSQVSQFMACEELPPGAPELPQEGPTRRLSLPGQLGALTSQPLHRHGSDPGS
Take `COc1cc(C(c2c(O)nc(SC)[nH]c2=O)c2c(O)nc(SC)[nH]c2=O)cc(OC)c1OC`: the “hERG current change (%, negative = inhibition) at 10uM” value worked out at 13.8%. The value for `COc1ccc(NS(=O)(=O)c2cc(NC(=O)c3ccc(C)s3)ccc2N2CCOCC2)cc1` was -14.1%; that for `CC(=O)Nc1ccc2c(c1)nc1n2CCSC1` was 11.5%; that for `COCCN1CC(=O)N2C(c3cccc(OC)c3)c3[nH]c4ccccc4c3C[C@H]2C1=O` (stereo partly shown) was -38.6%. The value for `Cc1ccc(C2CC(=O)NC(SCC(=O)Nc3nccs3)=C2C#N)cc1` (stereo not shown) was 4.55%; that for `O=C(c1ccc(Br)o1)N1CCN(C23CC4CC(CC(C4)C2)C3)CC1` was -17.6%.

With `O=C(O)c1cccc(NC(=O)c2cc(NC(=O)c3ccccc3)cc(NC(=O)c3ccccc3)c2)c1`, the “hERG current change (%, negative = inhibition) at 10uM” value is 16.1%. The value for `CCOCCn1c(=O)c2c(nc3n2CCN3c2ccc(CC)cc2)n(C)c1=O` was 6.46%; that for `CCOc1cc(C(=O)NCCOC)cc(OCC)c1OCC` was 10.6%. The value for `CCCCCOC(=O)c1ccc(OC(=O)c2cncc(Br)c2)cc1` was 0.0483%. In the case of `Nc1nnc(SCc2ccccc2F)n1-c1ccccc1`, the “hERG current change (%, negative = inhibition) at 10uM” value stood at 15.9%. The same measure for `COc1ccc(C2=NC(c3ccccc3)CO2)cc1` (stereo not shown): -2.03%; for `CCCSc1nc(N2CCOCC2)c2c(c1C#N)CC(C)(C)SC2`: -21.4%; for `C=CCOc1ccc(CN(C)c2ccc(S(=O)(=O)N3CCN(C)CC3)cc2[N+](=O)[O-])cc1`: 6.82%. The same measure for `Cc1ccc(S(=O)(=O)/N=C/N(C)C)cc1`: 0.768%. The same measure for `COc1cc(-n2c(=O)c3ccccc3n(Cc3cccc(F)c3)c2=O)cc(OC)c1OC`: 8.36%; for `COc1ccc(/C(C)=N/NC(=O)CNC(=O)C2COc3ccccc3O2)c(OC)c1` (stereo not shown): 5.46%; for `CC1CCN(c2ccc3nnc(CCC(=O)N4CCCCC4)n3n2)CC1`: -3.14%.

Turning to `O=C(Nc1cc(S(=O)(=O)N2CCOCC2)ccc1N1CCOCC1)c1cccs1`, the “hERG current change (%, negative = inhibition) at 10uM” value is reported as -27.1%. Consider `O=C(O)C(Sc1ccncn1)c1ccccc1` (stereo not shown), for which the “hERG current change (%, negative = inhibition) at 10uM” value is on record as 10.1%. The same measure for `CC(NC(=O)NCC1CCCO1)(C(F)(F)F)C(F)(F)F` (stereo not shown): 0.71%; for `O=C(NCCCO)c1ccc2[nH]c3c(c2c1)CCCC3`: 8.79%. The same measure for `COC(=O)c1ccc(Nc2nc(N3CCOCC3)nc(N3CCOCC3)n2)cc1.Cl`: -1.25%; for `COc1ccc(Cc2nnc(Nc3ccc4c(c3)OCCO4)[nH]c2=O)cc1`: 16.9%; for `COc1ccccc1N1CCN(C(=O)CCc2ccccc2)CC1`: -11.4%. The same measure for `On1c(-c2ccc(Cl)cc2Cl)nc2ncccc21`: 8.16%; for `COc1ccc(NC(=O)CN(C)C(=O)c2cc3c(s2)CCC3)cc1`: -4.78%; for `C/C(=N\NC(=O)c1[nH]c2c([N+](=O)[O-])cc(C)cc2c1-c1ccccc1)c1cccnc1`: 6.67%. In the case of `CN(C)CCOc1cc(Cl)cc(Cl)c1`, the “hERG current change (%, negative = inhibition) at 10uM” value was determined as 7.27%. The value for `C=CCOc1cc(C)nc(-c2ccccc2O)n1` was -1.94%; that for `CC1CCN(Cc2nc(-c3ccc(Cl)cc3)no2)CC1` was 8.57%. With `CC(C)CCNC(=O)CN(CC1CCCO1)C(=O)CCC(=O)Nc1ccccn1` (stereo not shown), the “hERG current change (%, negative = inhibition) at 10uM” value is reported as -0.75%. The value for `Cn1nc(-c2ccc(Cl)cc2)nc2c(=O)n(C)c(=O)nc1-2` was -38.8%. The value for `O=C(NCc1ccc2c(c1)OCO2)c1cccnc1` was 1.95%. The value for `C/C(CC(=O)Nc1ccc(N(C)C)cc1)=N\NC(=O)c1ccccc1O` was 15.5%.

As to `CC(CN1CCCCC1)OC(=O)/C=C/c1ccccc1.Cl` (stereo not shown), the “hERG current change (%, negative = inhibition) at 10uM” value was -71%. The same measure for `CCOC(=O)Cc1csc(NC(=O)c2ccc(N3CCOCC3)cc2[N+](=O)[O-])n1`: -36.5%; for `O=C(O)C1=CC[C@@H](c2ccc(Cl)cc2)N(S(=O)(=O)c2ccc(Cl)cc2)[C@H]1c1ccc(F)cc1`: 4.97%. For `Cc1cc(C)cc(C(=O)N2CCN(c3ccccn3)CC2)c1`, the “hERG current change (%, negative = inhibition) at 10uM” value is reported as -11.4%. The value for `Cc1csc(SCC(=O)NC(=O)C2CCCCC2)n1` was 29.5%; that for `Cc1ccc2c(c1)N(C)/C(=C/c1cccc[n+]1C)S2.[I-]` was -47.5%.

With `CCn1c(COc2ccccc2C)nnc1SCc1nc2ccccc2c(=O)[nH]1`, the “hERG current change (%, negative = inhibition) at 10uM” value is recorded as 24%.

Turning to `C=CCOc1ccccc1CN1CCC(Oc2cc(C(=O)NC3CC3)ccc2OC)CC1`, the “hERG current change (%, negative = inhibition) at 10uM” value is -72.2%. The value for `CC(C)c1ccc(/C=C/C(=O)NCCC2=CCCCC2)cc1` was -9.54%; that for `CC(C)Cn1c(=O)c(-[n+]2ccccc2)c([O-])c2ccccc21` was -9.67%; that for `OC(CN1C2=NCCN2c2ccccc21)c1ccc(Br)cc1` (stereo not shown) was -71%. As for `COc1ccc(CN(CC2CCC(C(=O)O)CC2)C(=S)Nc2ccccc2OC)cc1` (stereo not shown), the “hERG current change (%, negative = inhibition) at 10uM” value was 9.91%. The value for `CCN(CC)c1ncnc2c1[nH]c1ccccc12` was -21.8%; that for `COc1cccc(/C(N)=N/OC(=O)Cc2ccccc2[N+](=O)[O-])c1` was 4.95%; that for `Cc1ccc(C(=O)OCC(=O)Nc2ccc3c(c2)OCO3)c(O)c1` was -0.398%.

For `Cn1c(=O)cc(N)n(-c2ccccc2)c1=O`, the “hERG current change (%, negative = inhibition) at 10uM” value worked out at 16.3%. The value for `COc1ccccc1/C=C/C=N/n1c(-c2cc(C)[nH]n2)n[nH]c1=S` was 22.9%; that for `COc1ccccc1N1CCN(C(=O)C(=O)c2cn(CC(=O)N3CCCC3)c3ccccc23)CC1` was 4.53%. The same measure for `CN(C(=O)CSc1nnc(NC2CCCCC2)s1)C1CCS(=O)(=O)C1` (stereo not shown): 8.41%; for `CCn1c(-c2ccc(N)cc2)nc2ccccc21`: 4.21%; for `CCn1cc(C(=O)OCC(=O)Nc2cccc(C)c2)c(=O)c2ccc(C)nc21`: 19.7%. Regarding `COc1cccc(/C=N/NC(=O)C(C)Sc2ccccc2)c1` (stereo not shown), the “hERG current change (%, negative = inhibition) at 10uM” value is on record as 1.85%. The value for `O=C1N/C(=C/c2cccn2-c2ccccc2)C(=O)N1Cc1ccccc1F` was 8.06%.
